From PubChem BioAssay AID504845 (National Center for Advancing Translational Sciences (NCATS), 2011)
Among all 390,000 compounds or so, about 150 (0.038%) were called active. This list was built around the results that the source calls inconclusive (neither active nor inactive); the mix of calls is not that of the screen. Calls come from the whole dose curve; as a rule, active = well fitted inhibition curve with a large enough effect; inconclusive = small, poorly fitted or top-dose-only effect; inactive = no such curve, though single readings can be large or run the other way. Where the call is inconclusive, the potency comes from a doubtful curve fit.

The compounds below were run against Regulator of G-protein signaling 4 (Homo sapiens) (UniProt P49798) (assay: Inhibitors of Regulator of G Protein Signaling (RGS) 4: qHTS). Conditions: Transcreener GDP fluorescence polarization, RGS4-accelerated GTP hydrolysis; series mostly up to 114 µM.
Summary of the method: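 MLSMR compounds (23 nl, pin-transferred) preincubated 10 min at room temperature with a 500nM (2x) first reagent, then RGS4 at 900nM (2x) plus Transcreener GDP mix added; fluorescence polarization (620/688 nm) read before and after 90 min at 30 °C.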
% is set by controls: 0 for no effect and ±100 for the full control effect; potency is the fitted concentration of half-maximal effect; tags give direction and shape of the fitted curve.
Note: nearly all actives have a fitted effect of over 75% in size.

Chain of UniProt P49798 (P49798 whole entry, looked up): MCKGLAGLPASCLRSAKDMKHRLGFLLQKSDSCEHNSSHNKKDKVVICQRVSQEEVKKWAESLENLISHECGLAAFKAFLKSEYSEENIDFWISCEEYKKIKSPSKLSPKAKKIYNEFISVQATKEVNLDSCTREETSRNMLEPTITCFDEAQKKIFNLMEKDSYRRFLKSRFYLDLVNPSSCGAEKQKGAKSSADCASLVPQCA

Structure (SMILES)	Potency	activity change, negative = inhibition
COc1cc(/C=C2\SC(=S)N(C(C(=O)O)c3ccccc3)C2=O)ccc1O (stereo not given)	inactive	–
CCOCCCNC(=O)c1ccc(N2CCCC2)c(NS(=O)(=O)c2ccc(C)cc2)c1	inactive	–
Cc1ccc(N2C(=O)/C(=C\c3ccco3)SC2=S)cc1	inconclusive: 44.7 µM [inhibitor, partial curve, poor fit]	–
Cc1cc(=O)[nH]c(N/N=C/c2c(C)nn(-c3ccccc3)c2Cl)n1	inconclusive: 89.1 µM [inhibitor, single point]	–
COC(=O)c1ccc(NC(=O)CCN2CCN(c3ccccc3)CC2)cc1	–	inactive: -1.66% [at 11.4 µM]
COc1cc(OC)cc(C(=O)Nc2ccc(NC(=O)c3ccco3)c(Cl)c2)c1	inconclusive: 39.8 µM [inhibitor, partial curve, poor fit]	–
CCCCCOC(=O)c1[nH]c2c(c1C)C(=O)CC(c1ccco1)C2 (stereo not given)	inconclusive: 28.2 µM [inhibitor, full curve, poor fit]	–
COc1cccc(CNc2ccc(N3CCC(C)CC3)cc2)c1OC	inconclusive: 79.4 µM [inhibitor, partial curve, poor fit]	–
S=c1[nH]nc(-c2ccncc2)n1/N=C/C=C/c1ccco1	inconclusive: 100 µM [inhibitor, single point]	–
O=c1c2ccccc2sn1-c1cc(S(=O)(=O)N2CCOCC2)ccc1N1CCCCC1	inconclusive: 20 µM [inhibitor, full curve, poor fit]	–
CCN(CC)Cc1c(O)ccc2c1O/C(=C\C=C\c1ccccc1)C2=O	–	inactive: -14.6% [at 11.4 µM]
COc1ccc(CC(=O)Nc2ccc3nc(SC)sc3c2)cc1OC	inconclusive: 70.8 µM [inhibitor, single point]	–
CC(C)C(=O)NC(=S)Nc1ccc(S(=O)(=O)NC(C)(C)C)cc1	inconclusive: 70.8 µM [inhibitor, single point]	–
Nc1nonc1-n1nnc(C(=O)N/N=C/c2cccc(Cl)c2)c1CN1CCCC1	inconclusive: 89.1 µM [inhibitor, single point]	–
Fc1ccc(CSc2ncnc3c2oc2ccccc23)cc1	inconclusive: 89.1 µM [inhibitor, single point]	–
Cc1[nH]n2c(=O)cc(-c3ccc([N+](=O)[O-])cc3)nc2c1-c1ccccc1	inconclusive: 89.1 µM [inhibitor, single point]	–
Cc1ccn2c(-c3csc(NCc4ccco4)n3)c(C)nc2c1	inconclusive: 50.1 µM [inhibitor, partial curve, poor fit]	–
ON=C1C2CC=C(c3ccccc3)C1CCC2 (stereo not given)	inconclusive: 89.1 µM [inhibitor, single point]	–
Cc1nn(C)c(C)c1S(=O)(=O)N1CCCC(C(=O)NC2CCCCCC2)C1 (stereo not given)	inconclusive: 50.1 µM [inhibitor, partial curve, poor fit]	–
O=c1[nH]c(/C=C/c2ccc(Cl)cc2Cl)c([N+](=O)[O-])c(=O)[nH]1	inconclusive: 50.1 µM [inhibitor, partial curve, poor fit]	–

Structure (SMILES)	Potency	activity change, negative = inhibition
COc1ccc(CNC(=O)c2sc(=S)n(-c3ccccc3)c2N)cc1	inconclusive: 28.2 µM [inhibitor, full curve, poor fit]	–
Cc1noc(C)c1COc1cccc(C(=O)OCCOc2ccc(F)cc2)c1	inactive	–
[O-]/[N+](=C\c1ccccc1)c1ccc(Br)cc1	inconclusive: 79.4 µM [inhibitor, partial curve, poor fit]	–
COc1ccc(CNC(=S)Nc2ccccc2F)cc1	inconclusive: 89.1 µM [inhibitor, single point]	–
CC(=O)Nc1ccc(S(=O)(=O)Nc2cc([N+](=O)[O-])ccc2C)cc1	inconclusive: 17.8 µM [inhibitor, full curve, poor fit]	–
COC(=O)C1=C(C)N=C2SC(C#N)=C(N)N2C1c1ccc(OC)cc1 (stereo not given)	inactive	–
Cc1cc(C(=O)C(C)OC(=O)c2ccc(NC(=O)CC#N)cc2)c(C)n1-c1ccccc1 (stereo not given)	inactive	–
N#Cc1c(-n2cccc2C=O)sc2c1CCCC2	inconclusive: 50.1 µM [inhibitor, partial curve, poor fit]	–
C=CCc1cccc2cc(C(=O)Nc3ccc(S(=O)(=O)Nc4nnc(CC)s4)cc3)c(=O)oc12	inconclusive: 44.7 µM [inhibitor, partial curve, poor fit]	–
CN(C)/C=C/C(=O)Oc1ccc(Cl)cc1Cl	inconclusive: 50.1 µM [inhibitor, partial curve, poor fit]	–
CCOc1ccc(S(=O)(=O)NCc2nc3cccnc3n2Cc2ccccc2OC)cc1	inconclusive: 100 µM [inhibitor, partial curve, poor fit]	–
C[N+](C)(C)CCC(=O)c1cccc2ccccc12	inconclusive: 8.44 µM [inhibitor, partial curve, poor fit]	–
O=C(O)c1ccc(NC(=O)c2ccco2)c(NC(=O)c2ccco2)c1	inconclusive: 89.1 µM [inhibitor, single point]	–
CCN(C(=S)Nc1cc(S(=O)(=O)N2CCOCC2)ccc1Cl)c1cccc2ccccc12	inconclusive: 28.2 µM [inhibitor, full curve, poor fit]	–
COc1ccc(NC(=S)NC(C)C(c2ccccc2)N2CCOCC2)cc1 (stereo not given)	inactive	–
O=C(Cn1c(=O)n(Cc2ccccc2)c(=O)c2sc3ccccc3c21)Nc1ccc(F)cc1	inactive	–
CC(=O)C1=C(O)C(=O)N(Cc2cccnc2)C1c1ccc(Cl)cc1 (stereo not given)	inactive	–
COc1ccc2c(c1)CCC1C2=NN(/C(C)=C\C(C)=O)C1c1ccc(F)cc1 (stereo not given)	inconclusive: 31.6 µM [inhibitor, full curve, poor fit]	–
COc1ccc(OC)c(-c2csc(-c3c(N)c(C(=O)c4ccc(Cl)cc4)n4ccccc34)n2)c1	inactive	–
CCN(CC)S(=O)(=O)c1ccc(OC)c(NC(=O)c2ccc([N+](=O)[O-])cc2)c1	inconclusive: 50.1 µM [inhibitor, partial curve, poor fit]	–
